The other results are listed elsewhere or left out.
Each sequence was assayed on PfSIP2 AP2 domain 1 (GST-tagged) (assay: gcPBM binding intensity (ln(normalized median fluorescence intensity)); higher = stronger DNA binding).
In short: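 Binding intensity is the highest Masliner-normalised natural-log median intensity over replicate spots in either probe orientation. To obtain it, GST-tagged P. falciparum DNA-binding domains made in E. coli were incubated for 1 h on an Agilent 4 × 180k array of primer-extended double-stranded 36-bp intergenic genomic probes plus negative controls. Detection used Alexa488 anti-GST antibody with scanning at 488 nm.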

First: TAATGGAGAAAATAATGTACTTAGATATTTGTTCTA [XGTACX_site6312]
Second: AAGAACAAACAAAATAGTACAATATATATATATATA [XGTACX_site4258]
The “gcPBM binding intensity (ln)” value of the first is lower: 6.75 for the first, 9.48 for the second.

Compared with “TTTAAATATTTTATAGCATGCTACCAATATGTATAT [TGCATGCA_site291]”, “AACTATAATTAAAGGATGCACTTGAAGGCATTTCAA [GTGCAC_site9689]” is higher in “gcPBM binding intensity (ln)” value: 7.15 for the first, 7.8 for the second.

First: TATTCATAACAATGATGTACATATATTTTTTTTTTC [XGTACX_site5619]
Second: CATATATAGATATATACACACATATAGATTTTCTTT [CACACA_site6797]
The “gcPBM binding intensity (ln)” value of the first is higher: 7.02 for the first, 6.9 for the second.

First: TTTAATCAATGATTTAATGAAAAAAGCAAAAAAAAA [GTGCAC_negctrl_site213]
Second: CGTTTGGTACACGTAGTGTTTTCGTTTGAATGTACC [GTGCAC_negctrl_site201]
The “gcPBM binding intensity (ln)” value of the first is lower: 6.9 for the first, 7 for the second.

First: TTTAATTTTCCCTTCACACATAATATATATCTGTAT [CACACA_site5370]
Second: GACATATATAGCAATCGTACATATATTATAAAAGGT [XGTACX_site6891]
The “gcPBM binding intensity (ln)” value of the first is lower: 7.08 for the first, 7.46 for the second.

Compared with “AAAAGGAACAGACACACACACATATATAAATATGTA [CACACA_site7656]”, “TTTTTTTATATTATACGCACTAATATATATATATAT [XGTACX_negctrl_site40]” is higher in “gcPBM binding intensity (ln)” value: 6.87 for the first, 8.94 for the second.

Going from “TAACACTTTTTTTTTCGTACATATATTATATATATA [XGTACX_site5470]” to “AAATAGACATAAAAAGGTACACAAATTGTGTATTAA [XGTACX_site527]”, the “gcPBM binding intensity (ln)” value falls from 8.09 to 6.75.

Going from “TTTTTATTAGGACATGCATACAAAATTAAAAAAAAT [TGCATGCA_site258]” to ATATATATATTTAAGGTGCGATTTTGTTATATTTAA, the “gcPBM binding intensity (ln)” value rises from 7.36 to 9.22.

Compared with “TTATTAAAATATTAAAGTACAAAAAAAATAAATAAA [XGTACX_site6507]”, “TTATGTATATTATAAATTAATACATTTAAATTAATA [CACACA_negctrl_site34]” is lower in “gcPBM binding intensity (ln)” value: 6.76 for the first, 6.66 for the second.

First: AATTATATTAATATATAATAAAATAGGATGTTATTT [XGTACX_negctrl_site309]
Second: GTATATAATTTATGTGCACACACTCCTATTTTTAGC [CACACA_site49]
The “gcPBM binding intensity (ln)” value of the first is lower: 6.76 for the first, 8.89 for the second.

Compared with “CTTATTTTATGTTATACACACAAAGAAAAAAAATAA [CACACA_site2165]”, “TATTAATTTATTTGTTGTACGTAAATATGCTTGTTT [XGTACX_site6591]” is higher in “gcPBM binding intensity (ln)” value: 7.09 for the first, 7.26 for the second.

Compared with “AAAAAAAAAAAAAATTGTACCCAAATATTTTTGTAG [XGTACX_site8303]”, “TGAGCATAAAAAGGGTGTACTTAAATATATTATATA [XGTACX_site7556]” is lower in “gcPBM binding intensity (ln)” value: 7.05 for the first, 6.99 for the second.

Going from “GAATATAATCTGTATTGTACGAAAGTTGAACACTTG [XGTACX_site8895]” to “TTGTATTATTATGTTGCACACATTTTATATAAAATA [CACACA_site3641]”, the “gcPBM binding intensity (ln)” value rises from 6.96 to 7.79.

First: TATATATATATATATATATATACAAATATATATTAT [CACACA_negctrl_site1729]
Second: TTTAGATAATTCATTACACACATGTATTTATATATA [CACACA_site5847]
The “gcPBM binding intensity (ln)” value of the first is higher: 9.67 for the first, 6.8 for the second.

Going from “ATAAAAGATATTTTTACACACTTTTGATGAGATCGT [CACACA_site3053]” to “ATACCAACATATTATACACACCTTTATATTTTTTTT [CACACA_site5217]”, the “gcPBM binding intensity (ln)” value rises from 6.83 to 7.13.

Compared with “GGTTGTATAAGTTTTTGTACATATATATATATATAT [XGTACX_site7487]”, “TTCAAGGTTTTAGATTGTACAATTATTATATATATA [XGTACX_site8982]” is lower in “gcPBM binding intensity (ln)” value: 8.94 for the first, 7.9 for the second.

First: TAATAAGAAATAACAGGTACACATATATAAATATTA [XGTACX_site2976]
Second: ATATGTAGATGATATTATTACTTTTCAAAAATTCAA [CACACA_negctrl_site933]
The “gcPBM binding intensity (ln)” value of the first is lower: 6.76 for the first, 6.87 for the second.

Compared with “TTTTTCATTAATACAAGTACAAAATGATGTTGACAT [XGTACX_site1475]”, “AAGTATAAAAAAAGGCGTACAAAAAAAAAAAAAAAA [XGTACX_site7309]” is lower in “gcPBM binding intensity (ln)” value: 7.03 for the first, 6.95 for the second.

Going from “TTTTTGTAAAAACACACACACAAACAGAAAAAATAA [CACACA_site2076]” to “TGTGCCCAAAATTATGCACACACCTAAAATTAATTT [CACACA_site2914]”, the “gcPBM binding intensity (ln)” value rises from 7.06 to 7.79.

Going from “ATGGTAGTTCTCCATGCATGCCTTTTTATTATCATA [TGCATGCA_site681]” to “ACTATTTAGTCTGGTGGTACTTTATATATAATTTCT [XGTACX_site5618]”, the “gcPBM binding intensity (ln)” value rises from 6.66 to 7.08.

Going from “ATATGTGTATGTGCGTGTACATATCTATACAGTTGT [XGTACX_site6540]” to “TTTTATCTTTTTTTATTTTAATGTATTATTTTTATG [XGTACX_negctrl_site24]”, the “gcPBM binding intensity (ln)” value falls from 7.32 to 6.6.

First: ATTATCATAATGTTCACACATATGGTATATATAGAT [CACACA_site6113]
Second: ATAAATAAAGGACACACACACACACTAGAAAAAAAA [CACACA_site5450]
The “gcPBM binding intensity (ln)” value of the first is lower: 7.12 for the first, 7.67 for the second.

Compared with “AAAATAAAATTAGTTGCATGCAACTTAAACAGAAAT [TGCATGCA_site860]”, “TTGTGCTTGATATCACGGACAAGCTCATATTATATA [XGTACX_site4553]” is lower in “gcPBM binding intensity (ln)” value: 7.24 for the first, 6.76 for the second.

Going from “ATGAAAAAATTTATATGTACTTAAAATATAATCATA [XGTACX_site1228]” to “TATATTATTAAGATATGTACATAATTATAAATTTAA [XGTACX_site6848]”, the “gcPBM binding intensity (ln)” value falls from 6.95 to 6.85.

Compared with “TATAAATAAAAACACACACACACATATATATATATA [CACACA_site2268]”, “CTCTATAAATGCTGCACACACATTTAATTATTTAAG [CACACA_site2582]” is lower in “gcPBM binding intensity (ln)” value: 9.29 for the first, 7.31 for the second.

Compared with “TATAAATATAAATATACACACATATTTATATTTATA [CACACA_site7053]”, “AAATGAAATACATCCTGTACATAGTAATGCTAACAA [XGTACX_site6600]” is lower in “gcPBM binding intensity (ln)” value: 6.96 for the first, 6.75 for the second.

First: TTTTACAATGAAAGGTGTACAAGTAACAGTAGAACA [XGTACX_site1528]
Second: AACAAATACAGACACACACACACACTAATAAAAAAA [CACACA_site8067]
The “gcPBM binding intensity (ln)” value of the first is higher: 7.4 for the first, 7.33 for the second.

Going from “GATATATATTAATATACACACACACCGATATATATA [CACACA_site8462]” to “TATTTTTATATTTTTGCACACATTCTTTACTCTTCA [CACACA_site2211]”, the “gcPBM binding intensity (ln)” value falls from 7.45 to 7.27.

Going from “AAAAATTTTATATTCACACACATATATATATATATA [CACACA_site624]” to “TTTATATTTTATAAATTATTCATAAATATATTTGTA [TGCATGCA_negctrl_site175]”, the “gcPBM binding intensity (ln)” value falls from 9.53 to 6.88.

First: TTTTGAAACATATGATGTACACGAACATTTAAAAAA [XGTACX_site474]
Second: AAATTCCACCAACACACACACATATAAATAAATAAA [CACACA_site1233]
The “gcPBM binding intensity (ln)” value of the first is lower: 7.16 for the first, 7.33 for the second.

Going from “AATAAATAGATAAGCACACAAGCATATAGACATATA [CACACA_site222]” to “TTTATAAAAATGAACACACACATATATATATATATA [CACACA_site3493]”, the “gcPBM binding intensity (ln)” value rises from 6.86 to 9.67.

Compared with “AAATATTTATAGGTTTGTACTTATAAATAAAAAAAA [XGTACX_site7360]”, “AATATGAAAAGATGAACAACAAAATGGAGAACAATA [GTGCAC_negctrl_site612]” is higher in “gcPBM binding intensity (ln)” value: 7.09 for the first, 7.15 for the second.

First: ATACAAAATTTTTAAGAACACACAAAAATGTACTAT [CACACA_site8817]
Second: TGAGGTAACTAAATATGTACGTAACGAAGATACATA [XGTACX_site8231]
The “gcPBM binding intensity (ln)” value of the first is higher: 7.01 for the first, 6.99 for the second.

Compared with “GCGTTATTAAATAATTCACACACATATATATATATA [CACACA_site8711]”, “GAACGCCATTCACATAAAGGGATACATAAATAAATA [XGTACX_negctrl_site330]” is lower in “gcPBM binding intensity (ln)” value: 9.24 for the first, 7.1 for the second.

First: AAGAAAAACTTTACGTGTACCAAACGTCATGCCAAC [XGTACX_site2575]
Second: TACTTACACTGTTTTTGTACTTATTTCCCTTTTATT [XGTACX_site2158]
The “gcPBM binding intensity (ln)” value of the first is lower: 6.86 for the first, 7.27 for the second.

First: AATCACAAATAAAATAATATGACACAATATAAAATA [CACACA_negctrl_site537]
Second: TTCTTGTATTTTCATAGTACATATAATGTCGTATTA [XGTACX_site600]
The “gcPBM binding intensity (ln)” value of the first is lower: 6.92 for the first, 7.28 for the second.

First: TAATTTCTTATGTATTGTACAAATAATGTATGATAT [XGTACX_site270]
Second: AAATGTTATAACTCTTGAAAAAACAAAATATCATCA [CACACA_negctrl_site1156]
The “gcPBM binding intensity (ln)” value of the first is higher: 7.19 for the first, 6.76 for the second.

Compared with “ACTTTACAATATATATGTACATATTAATAAACATAT [XGTACX_site3689]”, “GAGTTTTTTTAATGATGTACATTTTAAAAATAAACG [XGTACX_site1036]” is lower in “gcPBM binding intensity (ln)” value: 7.65 for the first, 7.25 for the second.

Compared with “AAAATAATATATGTATGTACATATACACATATAGAA [XGTACX_site2218]”, “TTTATTATACAAAATTGTACTTTATAATTTTATGTA [XGTACX_site5846]” is lower in “gcPBM binding intensity (ln)” value: 7.01 for the first, 6.82 for the second.

Compared with “AAATATTACGGAATAAAGAGCTTTTAAATAATTTTA [CACACA_negctrl_site1700]”, “AAATATAAACGGCACACACACAAAAAAAGAAAAAAA [CACACA_site649]” is higher in “gcPBM binding intensity (ln)” value: 6.56 for the first, 7.18 for the second.

Going from “AGAAACCTTGTTAGTTAGCATATATATATATATATA [CACACA_negctrl_site372]” to “TATTTTATACATATTTTACACACTAATATATACATA [CACACA_site7998]”, the “gcPBM binding intensity (ln)” value falls from 9.47 to 7.12.

Going from “GTTGCGTATATATACACACATACATATATATATATA [CACACA_site1607]” to “TTATATAATAAAAATTGTACATATTATATATATATT [XGTACX_site3427]”, the “gcPBM binding intensity (ln)” value falls from 9.4 to 6.87.

Going from “TAATATTCAATTATACGTACACATATATATATATAT [XGTACX_site4245]” to “TATGAAAGAAATAGTACACACATAAACATTTGTAAA [CACACA_site2783]”, the “gcPBM binding intensity (ln)” value falls from 9.26 to 7.02.

Going from TCATATATCATAACAGTGCAAAAAAAAAAAAATTAT to “GTTTGATTAAACTTGACACACATATATATAAATATA [CACACA_site1784]”, the “gcPBM binding intensity (ln)” value falls from 8.58 to 6.9.

— the supplement of paper PMC11417369
